From patent US5607914A, “Synthetic antimicrobial peptides” (Pioneer Hi-Bred International, Inc., priority 1994, dated 1997)
At least one peptide structure holds a part that was inferred or is arguable (an end, a ring closure or a residue). No end group written: not given here.

Legend:
A. flavus = assay: Antifungal activity of synthetic peptides (MIC/MCIC); format: cell-based; conditions: for MIC: concentration achieving a score of 1 or greater (25% growth inhibition); for MCIC: concentration achieving a score of 3 or greater (≥80% growth inhibition)
F. moniliforme = assay: as above; format: cell-based; conditions: for MIC: score of 1 or greater (25% growth inhibition); for MCIC: score of 3 or greater (≥80% growth inhibition)
P. syringae = assay: Antimicrobial activity expressed as % inhibition of growth; format: cell-based
E. coli = assay: as above; format: cell-based
E. stewartii = assay: as above; format: cell-based
B. pumilus = assay: as above; format: cell-based

| Sequence | MIC (A. flavus) [µg/mL] | MCIC (A. flavus) [µg/mL] | MIC (F. moniliforme) [µg/mL] | MCIC (F. moniliforme) [µg/mL] | % Inhibition of Growth (P. syringae; 3.00 μg/ml) [%] | % Inhibition of Growth (P. syringae; 6.25 μg/ml) [%] | % Inhibition of Growth (P. syringae; 12.5 μg/ml) [%] | % Inhibition of Growth (P. syringae; 25 μg/ml) [%] | % Inhibition of Growth (P. syringae; 50 μg/ml) [%] | % Inhibition of Growth (E. coli; 3.00 μg/ml) [%] | % Inhibition of Growth (E. coli; 6.25 μg/ml) [%] | % Inhibition of Growth (E. coli; 12.5 μg/ml) [%] | % Inhibition of Growth (E. coli; 25 μg/ml) [%] | % Inhibition of Growth (E. coli; 50 μg/ml) [%] | further results |
| --- | --- | --- | --- | --- | --- | --- | --- | --- | --- | --- | --- | --- | --- | --- | --- |
| IQRVAQKLKKALRALARHWKRAL [Peptide 17] | 40 | > 80 | 20 | 20 | – | – | – | – | – | – | – | – | – | – | – |
| IQRVAQKLKKALRALARHWKRALAGPGVTIGIAHAKSQLW [Peptide 5] | – | – | – | – | 12 | 20 | 30 | 56 | 100 | 0 | 0 | 0 | 0 | 0 | % Inhibition of Growth (P. syringae; 100 μg/ml): 100%; % Inhibition of Growth (E. stewartii; 3.00 μg/ml): 42%; % Inhibition of Growth (E. stewartii; 6.25 μg/ml): 47%; % Inhibition of Growth (E. stewartii; 12.5 μg/ml): 62%; % Inhibition of Growth (E. stewartii; 25 μg/ml): 100%; % Inhibition of Growth (E. stewartii; 50 μg/ml): 100% |
| IRALQRAVRHPRAIRRIYRGWKKAIR [Peptide 18] | 40 | > 80 | 10 | 20 | – | – | – | – | – | – | – | – | – | – | – |
| IRALQRAVRHPRAIRRIYRGWKKAIRAGPGVTIGIAHAKSQLW [Peptide 6] | 80 | > 80 | 15 | 40 | – | – | – | – | – | – | – | – | – | – | – |
| KKIEKAIKHIPKKIKAGPGVTIGIAHAKSQLW [Peptide 1] | – | – | 17 | > 40 | 0 | 2 | 5 | 10 | 27 | 0 | 0 | 0 | 0 | 4 | % Inhibition of Growth (P. syringae; 100 μg/ml): 72%; % Inhibition of Growth (E. coli; 100 μg/ml): 15%; % Inhibition of Growth (B. pumilus; 3.00 μg/ml): 0%; % Inhibition of Growth (B. pumilus; 6.25 μg/ml): 7%; % Inhibition of Growth (B. pumilus; 12.5 μg/ml): 9%; % Inhibition of Growth (B. pumilus; 25 μg/ml): 19%; % Inhibition of Growth (B. pumilus; 50 μg/ml): 25%; % Inhibition of Growth (B. pumilus; 100 μg/ml): 77% |
| KKIEKAIKHIPKKIKLKKALRALARHWK [Peptide 10] | 80 | > 80 | 7.5 | 10 | 0 | 0 | 19 | 27 | 48 | 0 | 0 | 0 | 0 | 0 | % Inhibition of Growth (E. stewartii; 3.00 μg/ml): 0%; % Inhibition of Growth (E. stewartii; 6.25 μg/ml): 0%; % Inhibition of Growth (E. stewartii; 12.5 μg/ml): 0%; % Inhibition of Growth (E. stewartii; 25 μg/ml): 0%; % Inhibition of Growth (E. stewartii; 50 μg/ml): 0% |
| KLIRKLIRWLRRKIRALQRAVAGPGVTIGIAHAKSQLW [Peptide 7] | 40 | > 80 | 10 | 40 | – | – | – | – | – | – | – | – | – | – | – |
| KLKKALRALARHWK [Peptide 16] | 30 | > 80 | 5 | 40 | – | – | – | – | – | – | – | – | – | – | – |
| KLKKALRALARHWKAGPGVTIGIAHAKSQLW [Peptide 2] | – | > 80 | 14 | 39 | 83 | 90 | 90 | 91 | 92 | 8 | 26 | 30 | 35 | 38 | % Inhibition of Growth (P. syringae; 100 μg/ml): 95%; % Inhibition of Growth (E. coli; 100 μg/ml): 44%; % Inhibition of Growth (B. pumilus; 3.00 μg/ml): 0%; % Inhibition of Growth (B. pumilus; 6.25 μg/ml): 0%; % Inhibition of Growth (B. pumilus; 12.5 μg/ml): 0%; % Inhibition of Growth (B. pumilus; 25 μg/ml): 22%; % Inhibition of Growth (B. pumilus; 50 μg/ml): 69%; % Inhibition of Growth (B. pumilus; 100 μg/ml): 87% |
| KLKKALRWLARHAK [Peptide 20] | 12.5 | > 80 | 5 | 10 | – | – | – | – | – | – | – | – | – | – | MCIC (A. tumefaciens): 50 μg per ml |
| KWKKALRALARHLK [Peptide 19] | 5 | 80 | 2.5 | 10 | – | – | – | – | – | – | – | – | – | – | MCIC (A. tumefaciens): > 100 μg per ml |
| QRAVKKIEKAIKHIPKKIKIRALAGPGVTIGIAHAKSQLW [Peptide 4] | – | – | 17 | 136 | 0 | 3 | 14 | 27 | 32 | 0 | 0 | 0 | 0 | 0 | % Inhibition of Growth (E. stewartii; 3.00 μg/ml): 54%; % Inhibition of Growth (E. stewartii; 6.25 μg/ml): 55%; % Inhibition of Growth (E. stewartii; 12.5 μg/ml): 57%; % Inhibition of Growth (E. stewartii; 25 μg/ml): 100%; % Inhibition of Growth (E. stewartii; 50 μg/ml): 100% |
